Measured values published in the RNAGym collection of RNA variant scans (doi:10.7554/elife.90254).
The source gives no read counts; variants with many changes may rest on few reads.

B1: OR4K15 (parent)
chain: GUUAACGGUCAUAGGCCAUGGAAACUAGGAGCACCAUUUCGCUGCCAGUGAAGAAAUGAACAAAGAAAAUCUGGGCCAGGCAGGCAUCAAAAGAAAUAGUCUUGCGCUCAACCAGAAAGUCUGUAAUCAUUUUAAGGGUA

Variants of: B1
Assay: self-cleavage, relative activity (ratio to wild type); higher = more cleavage; in vitro, sequencing; the parent is a self-cleaving ribozyme

For GUUAGCGGUCAUAGGCCAUGGAAACUAGGAGCACCAUUUCGCUGCCAGUGAAGAUAUGAACGAAGAAAAUCUGGGCCAGGCAGGCAUCAAAAGAAAUAGUCUUGCGCUCAACCAGAAAGUCUGUAACCAUCUUAAGGGUA [A5G A55U A62G U127C U131C], which self-cleavage is on record?
Its self-cleavage is 0.32.

For GUUAGCGGUCAUAGGCCAUGGAAACUAGGAGCACCAUUUCGCUGCCAGUGAAGAAAUGAACAAAGAGAAUCUGGGCCAGGCAGGCAUCAAAAGAAAUAGUCUUGCGCUCGACCAGAAAGUCUGUAAUCAUUUUAAGGGUA [A5G A67G A110G], which self-cleavage is on record?
The self-cleavage was 0.13.

Which self-cleavage does the source give for GUUAGCGGUCAUAGGCCAUGGAAACUAGGAGCACCAUUUCGCUGCCAGUGAAGAAAUGAGCAAAGAAAAUCUGGGCCUGGCAGGCAUCAAAAGAAAUAGUCUUGCGCUCAACCAGAAAGUCUGUAAUCAUUUUAGGGGUA [A5G A60G A78U A135G] here?
Its self-cleavage is 0.18.

Which self-cleavage does the source give for GUUAGCGGUCAUAGGCCAUGGAAACUAGGAGCACCAUUUCGCUGCCAGUGAAGAAAUGAACACAGAAAAUCUGGGCCAGGCAGGCAUCAAAAGAAAUAGUCUUGCGCUCAACCAGAAAGUCUGUAAUCCUUUUAGGGGUA [A5G A63C A129C A135G] here?
Its self-cleavage is 1.39.

For GUUAGCGGUCAUAGGCCAUGGAAACUAGGAGCACCAUUUCGCUGCCAGUGAAGAAAUGAGCAAAGAAAAUCUGGGCCAGGCAGGCAUCAAAAGGAAUAGUCUUGCGCUCAACCAGAAAGUCUGUAAUCAUUUUAAGGGUA [A5G A60G A94G], which self-cleavage is on record?
Its self-cleavage is 1.22.

For GUUAGCGGUCAUAGGCCAUGGAAACUAGGAGCACCAUUUCGCUGCCAGUGAAGAAAUGAACAAAGGAAAUCUGGGCCAGGCGGGCAUCAAAAGAAAUAGUCUUGCGCUCAACCAGAAAGUCUGUAAUCAUUUUAAGGGUA [A5G A66G A82G], which self-cleavage is on record?
The self-cleavage was 0.24.

For GUUAGCGGUCAUAGGCCAUGGAAACUAGGAGCACCAUUUCGCUGCCAGUGAAGAAAUGUACAAAGAAAAUCUGGGCCGGGCAGGCAUCAAAAGAAAUAGUCUUGCGCUCAACCGGAAAGUCUGUAGUCGUUUUAAGGGCA [A5G A59U A78G A114G A126G A129G U139C], which self-cleavage is on record?
Its self-cleavage is 0.02.

With GUUAGCGGUCAUAGGCCAUGGAAACUAGGAGCACCAUUUCGCUGCCAGUGAAGAAAUGAACGAAGAAAAUCUGGGACAGGCAGGCAUCAAAAGAAAUAGUCUUGCGCUCAACCAGAAAGUCUGUAAUCAUUUUAGGGGUA [A5G A62G C76A A135G] as the variant, how does the self-cleavage read?
Its self-cleavage is 0.16.

For GUUAGCGGUCAUAGGCCAUGGAAACUAGGAGCACCAUUUCGCUGCCAGUGAAGAAAUGAACAGUGAAAAUCUGGGCCAGGCUGGCAUCAAAAGAAAUAGUCUUGCGCUCAACCAGAAAGUCUGUAAUCAUUUUAAGGGUA [A5G A63G A64U A82U], which self-cleavage is on record?
The self-cleavage was 0.31.

Which self-cleavage does the source give for GUUAGCGGUCAUAGGCCAUGGAAACUAGGAGCACCAUUUCGCUGCCAGUGAAGAAAUGACCAAAGGAAGUCUGGGCCAGGCUGGCAUCAAAAGAAAUAGUCUAGCGCUCAACCAGAAAGUCUGUAAUCAUUUUAAGGGUA [A5G A60C A66G A69G A82U U103A] here?
Its self-cleavage is 1.14.

Which self-cleavage does the source give for GUUAGCGGUCAUAGGCCAUGGAAACUAGGAGCACCAUUUCGCUGCCAGUGAAGAAAUGAACAAAGAGAAUCUGGGCCAGGCAAGCAUCUAAAGAAAUAGUCUUGCGCUCAACCAGAAAGUCUGUAAUCAUUUUAAGGGUA [A5G A67G G83A A89U] here?
The self-cleavage was 1.09.

With GUUAGCGGUCAUAGGCCAUGGAAACUAGGAGCACCAUUUCGCUGCCAGUGAAGAAAUGGACAAAGAAAAUCUGGGCCAGGCAGGCGUCAAGAGGAAUAGUCUUGCGCUCAACCAGAAAGCCUGCAAUCAUUUUAAGGGUA [A5G A59G A86G A91G A94G U120C U124C] as the variant, how does the self-cleavage read?
Its self-cleavage is 0.02.

For GUUAGCGGUCAUAGGCCAUGGAAACUAGGAGCACCAUUUCGCUGCCAGUGAAGAAAUGAACGAAGAAAAUCUGGGCCAGGCAGGCACCAGAAGAAAUAGUCCUGCACUCAACCAGAAAGUCUGUAAUCAUUUUAAGGGUA [A5G A62G U87C A90G U102C G106A], which self-cleavage is on record?
The self-cleavage was 0.04.

For GUUAGCGGUCAUAGGCCAUGGAAACUAGGAGCACCAUUUCGCUGCCAGUGAAGAAAUGAACAGAGAAAAUCUGGGCCAGGCAGGCAUCAAAAGAAAUAGUCUUGCGCUCAACCAGAGAGUCUGUAAUCAUUUUAAGGGUA [A5G A63G A117G], which self-cleavage is on record?
Its self-cleavage is 1.58.

For GUUAGCGGUCAUAGGCCAUGGAAACUAGGAGCACCAUUUCGCUGCCAGUGAAGAAAUGAACUAAGAAAAUCUGGGCCAGGCAGGCAUCAAAAGAAAUAGUCUUGCGCUCAACCUGAAAGUCUGUAAUCAUUUUAAGGGUA [A5G A62U A114U], which self-cleavage is on record?
Its self-cleavage is 0.12.

Which self-cleavage does the source give for GUUAGCGGUCAUAGGCCAUGGAAACUAGGAGCACCAUUUCGCUGCCAGUGAAGAAAUGAGCAGAGAAAAUCUGGGCCAGGCAGGCAUCAAAAGAAAUAGUCUUGCGCUCAACCAGAAAGUCUGUAAUCAUUUUAAGGGUA [A5G A60G A63G] here?
Its self-cleavage is 0.86.

For GUUAGCGGUCAUAGGCCAUGGAAACUAGGAGCACCAUUUCGCUGCCAGUGAAGAAAUGAACAAAGAGAAUCCGGGCCAGGCAGGCAUCAAAAGAAAUAGUCUUGCGCUCAACCAGAAAGUCCGUAAUCAUUUUAAGGGUA [A5G A67G U72C U122C], which self-cleavage is on record?
The self-cleavage was 0.28.

For GUUAGCGGUCAUAGGCCAUGGAAACUAGGAGCACCAUUUCGCUGCCAGUGAAGAAAUGAACUAAGAAAAUCUGGGCCAGGCAGGCAUCAAAAGAAAUAGUCUUGCGCUCAGCCAGAAAGUCUGUAAUCACCUUAAGGGUA [A5G A62U A111G U130C U131C], which self-cleavage is on record?
Its self-cleavage is 0.04.

With GUUAGCGGUCAUAGGCCAUGGAAACUAGGAGCACCAUUUCGCUGCCAGUGAAGAAGUGAACAAAGAAAAUCUGGGCCAGGCAGGCAUCAAAAGAAAUAGUCUUGCGCUCAACCAGAAAGUCUGUGAUCAUUUUAAGGGUA [A5G A56G A125G] as the variant, how does the self-cleavage read?
Its self-cleavage is 0.79.

Which self-cleavage does the source give for GUUAGCGGUCAUAGGCCAUGGAAACUAGGAGCACCAUUUCGCUGCCAGUGAAGAAAUGAACAAAGAGAAUCUGGGCCAGGCAGGCAUCAAAAGAGAUGGUCCUGCGCUCAACCAGAAAGUCUGUAAUCAUUUUAAGGGUA [A5G A67G A95G A98G U102C] here?
Its self-cleavage is 1.76.

Which self-cleavage does the source give for GUUAGCGGUCAUAGGCCAUGGAAACUAGGAGCACCAUUUCGCUGCCAGUGAAGAAAUGAACAGAGAAAAUCUGGGCCAGGCAGGCAUCAAAAGAAAUAGUCUUGCGCUCAACCAGAAAGUCUGUAAUCAUUUUAUGGGUA [A5G A63G A135U] here?
Its self-cleavage is 0.29.
